Test results reported in PubChem BioAssay AID493208 (National Center for Advancing Translational Sciences (NCATS), 2011).
Among all 44,000 compounds or so, about 340 (0.77%) were called active. Not shown: some 5% with an inconclusive outcome. Calls come from the whole dose curve; as a rule, active = well fitted inhibition curve with a large enough effect; inconclusive = small, poorly fitted or top-dose-only effect; inactive = flat fitted curve, though single readings scatter. The list shows a part of the results.

Assay: Acumen qHTS Assay for Inhibitors of the mTORC1 Signaling Pathway in MEF (Tsc2-/-, p53-/-) Cells: Sytravon;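 note: plate controls were DMSO for no effect and rapamycin for full effect; nearly all actives have a fitted effect of over 50% in size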
Conditions: phospho-rpS6 immunofluorescence/PI, 24 h; series mostly up to 38.3 µM; activity change, negative = inhibition: at the top concentration
How it was run: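 Readout is phospho-S6 Alexa 488 signal normalized to PI per well, reported as % active cells with thresholds set from rapamycin (7.5 nM) and DMSO controls. Cells: Tsc2-/-, p53-/- MEFs, 24 hrs compound at 37 C; PI cell number serves as viability.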

SMILES | activity change, negative = inhibition
CCOCN(C(=O)CSc1nc2ccccc2[nH]1)c1c(C)cccc1CC | inactive: 2.96%
CCOC(=O)c1c(C)oc2nc(C)nc(NCc3cccc(OC)c3)c12 | inactive: -0.713%
O=C(c1ccccc1)c1ccc2nc(Nc3ccccc3Cl)c3nncn3c2c1 | inactive: 5.24%
CCCCN(CC)C(=O)Cn1nc(C)c2c(C)n(-c3ccccc3)nc2c1=O | inactive: -1.51%
CCOC(=O)c1cc(OC(=O)c2ccc(OC)c(OC)c2)n(-c2ccccc2)n1 | inactive: -5.14%
Cc1ccc(N2CC(C(=O)Nc3ccc(Cl)cc3Cl)CC2=O)cc1 (stereo unspecified) | inactive: -6.93%
Cc1cccc(Cn2c(SCc3ccc(C(=O)NC4CCCCC4)cc3)nc3cccnc32)c1 | inactive: -11.6%
COc1ccccc1CNC(=O)CCCn1c(=O)c2ccccc2n(Cc2ccccc2F)c1=O | inactive: -11.6%
COc1ccccc1NC(=O)CCNS(=O)(=O)c1ccc2c(c1)CCCC(=O)N2 | inactive: 5.14%
CCn1c(=O)cc(SCC(=O)N2CCN(c3cc(C)ccc3C)CC2)c2ccccc21 | inactive: 0.123%
O=C(CSc1nnc(-c2ccccc2)o1)N1CCCc2ccccc21 | inactive: -15.2%
CCOc1ccccc1CNC(=O)c1cnc2sc(N3CCC(C)CC3)nn2c1=O | inactive: -16.2%
COc1ccc(C(=O)Nc2nnc(S(=O)(=O)N3CCOCC3)s2)cc1 | inactive: -27.5%
CCc1ccc(-c2csc(-c3cc4cc(Br)ccc4oc3=O)n2)cc1 | inactive: -1.54%
Cc1nn(C(C)C(=O)NCc2cccc(F)c2)c(=O)c2c1sc1ccccc12 (stereo unspecified) | inactive: -0.231%
CCN(CC)C(=O)Cn1cc(SCC(=O)Nc2ccc(C)cc2)c2ccccc21 | inactive: -4.43%
Cc1ccc(C)c(N2CCN(C(=O)Cn3nc(Cc4cccnc4)c4ccccc4c3=O)CC2)c1 | inactive: -1.02%
COc1ccc(C)cc1NC(=O)C(NS(=O)(=O)c1cccc2nsnc12)c1ccccc1 (stereo unspecified) | inactive: -14%
CCOC(=O)N1CCc2c(sc3c2c(=O)n(-c2ccc(Cl)cc2)c(=O)n3CC(=O)Nc2ccccc2)C1 | inactive: 1.41%
CCn1c2ccc(F)cc2c2nnc(SCCN3CCCCC3)nc21 | inactive: -2.42%
Cc1cccc(CNC(=O)C2CCN(c3nc4ccc(Cl)cc4[nH]3)CC2)c1 | inactive: 1.92%
Cc1cc(C)c2c(C)c(C(=O)N3CCC(c4nc5ccccc5s4)CC3)oc2c1 | inactive: 2.57%
Cc1nc2c3ccccc3nc(NNC(=O)CCC(=O)N3CCN(c4ccccc4F)CC3)n2n1 | inactive: -16.9%
COc1ccc(C2Nc3ccccc3-c3nnc(SC)nc3O2)cc1C (stereo unspecified) | inactive: 0.744%

SMILES | activity change, negative = inhibition
COc1cc(C2c3c(oc4ccc(C)cc4c3=O)C(=O)N2Cc2ccc(F)cc2)ccc1O (stereo unspecified) | inactive: 6.51%
Cc1ccc(C(=O)Nc2ccccc2F)cc1S(=O)(=O)N1CCOCC1 | inactive: 2.72%
Cc1ccc(NC(=O)CCC(=O)N2CCOc3ccccc32)c(Cl)c1 | inactive: -13.4%
Cc1nc2cccnc2n1-c1cccc(C(=O)NCCc2ccc(Cl)cc2)c1 | inactive: -4.38%
N#Cc1ccccc1NC(=O)C(=O)NCC(c1ccc2c(c1)OCO2)N1CCN(c2ccccc2)CC1 (stereo unspecified) | inactive: -1.41%
O=C(Nc1ccc2nc(SCC(=O)N3CCCc4ccccc43)sc2c1)c1ccc(F)cc1 | inactive: -2.71%
COc1cc(CN2CCc3nc(N4CCN(c5ccccc5F)CC4)ncc3C2)ccc1OC(C)C | inactive: 0.0006%
CCC(=O)N1CCCc2cc(S(=O)(=O)Nc3ccc(C)c(C)c3)ccc21 | inactive: -1.56%
Cc1c(C(=O)Nc2ccc(Br)cc2F)sc2ncnc(N(C)C3CCCCC3)c12 | inactive: -6.91%
CCOC(=O)c1c(C)[nH]c(C)c1S(=O)(=O)NCC(=O)N(C)c1ccc(C)c(C)c1 | inactive: -8.31%
O=C(Nc1c(C(=O)c2ccccc2)oc2ccccc12)c1cc(=O)c2ccccc2o1 | inactive: 4.59%
Cn1cnc(S(=O)(=O)N2CCC(C(=O)N3CCN(c4cccc(C(F)(F)F)c4)CC3)CC2)c1 | inactive: 13%
COc1ccc(NC(=O)CSc2nc(-c3ccccc3)nc3cc(=O)[nH]n23)cc1 | inactive: 6.45%
CSc1ncc(C(=O)Nc2ccccc2C(=O)c2ccccc2)c(C)n1 | inactive: 0%
CCOC(=O)c1cnc2c(OC)cccc2c1Nc1cccc(O)c1 | inactive: -14.8%
CCN(CC)c1nn2c(=O)c(C(=O)NCc3cccc(C)c3)cnc2s1 | inactive: 4.46%
COc1ccc(Cn2c(SCc3ccc(C(=O)NCCc4ccccc4)cc3)nc3cccnc32)cc1 | inactive: -0.951%
Cn1c(=O)n(C/C=C/c2ccccc2)c(=O)c2c1nc1n2CCN1c1ccc(Cl)cc1 | inactive: 3.94%
CCOC(=O)c1[nH]c(C)c(CCC(=O)NCc2ccccc2C)c1C | inactive: 0%
CCn1cc(S(=O)(=O)c2ccc(C)cc2)c(=O)c2cc(F)c(N3CCCCCC3)cc21 | inactive: -5.3%
Cn1nc(-c2ccccc2F)c2cc(C(=O)N3CCN(c4ccc(F)cc4)CC3)sc21 | inactive: 1.39%
Cc1nn(C(=O)c2cccc(F)c2)c(C)c1S(=O)(=O)N1CCCCCC1 | inactive: 3.5%
CCC(C)NC(=O)Cn1c(=O)n(Cc2ccc(C(=O)NCc3ccccc3OC)cc2)c(=O)c2ccccc21 (stereo unspecified) | inactive: -7%
CCCN1CCN(CCCNC(=O)Cn2c(-c3cccs3)cc3ccccc32)CC1 | inactive: 1.28%

SMILES | activity change, negative = inhibition
Cc1ccc(NC(=O)CSc2ncnc3c2sc2ccccc23)cc1C | inactive: 0%
Cc1cccc(N2CCN(S(=O)(=O)c3ccc(F)c(C(=O)Nc4ccc(C(C)C)cc4)c3)CC2)c1C | inactive: 2.42%
Cc1ccc(C)c(NC(=O)CSc2nc(=O)n(Cc3ccccn3)c3c2CCC3)c1 | inactive: 3.32%
COc1ccc(OC)c(Nc2ncnc3c2cnn3-c2ccc(C)cc2)c1 | inactive: 1.25%
Cc1cc(C)cc(NS(=O)(=O)c2ccc3[nH]cc(C(=O)N4CCCCCC4)c(=O)c3c2)c1 | inactive: -11.1%
COc1ccc(-c2noc(CN3CCN(c4cccc(Cl)c4)CC3)n2)cc1 | inactive: -5.96%
O=C(C1CCC1)N1CCCc2cc(S(=O)(=O)Nc3ccc(F)cc3)ccc21 | inactive: -1.91%
CCOc1ccc(CC(=O)NC2CC(=O)N(c3ccc(C)c(C)c3)C2)cc1 (stereo unspecified) | inactive: 1.19%
C#CC(C)(CC)NC(=O)c1cc2c(n(-c3ccc(Cl)cc3)c1=O)CC(C)(C)CC2=O (stereo unspecified) | inactive: -0.367%
COCCn1c(C)cc(O)c(C(c2ccc(C)cc2)N2CCCCC2)c1=O (stereo unspecified) | inactive: 10.7%
CC(=O)N1c2ccccc2C(=O)C1N1CCN(c2cccc(C(F)(F)F)c2)CC1 (stereo unspecified) | inactive: -2.7%
CC(=O)N1CCc2cc(Br)cc(S(=O)(=O)N3CCN(c4cc(C)ccc4C)CC3)c21 | inactive: 2.65%
Cn1cc(-c2cc3n(n2)CCC(=O)N3CC(=O)O)c2ccccc21 | inactive: -1.71%
Cc1ccccc1OCC(=O)N(Cc1ccc(N(C)C)cc1)CC1CCCO1 (stereo unspecified) | inactive: 4.64%
OCc1nc2ccccc2n1Cc1c(F)cccc1Cl | inactive: -0.179%
Cc1cccc(CNC(=O)CCCN2C(=O)CCn3nc(-c4cn(C)c5ccccc45)cc32)c1 | inactive: 0.424%
CCN(CC)c1ccc(NC(=O)c2cc(S(=O)(=O)N3CCc4ccccc43)cn2C)c(C)c1 | inactive: 7.56%
CCN1CCN(c2c(S(=O)(=O)c3ccccc3)cnc3ccc(Cl)cc23)CC1 | inactive: 1.72%
Cc1ccc(OCC(=O)OCc2cc(=O)n3nc(-c4cccs4)sc3n2)cc1 | inactive: -14%
COc1cccc(NC(=O)C2CCCN(c3nnc(-n4c(C)ccc4C)s3)C2)c1 (stereo unspecified) | inactive: -26.9%
COc1ccccc1CNC(=O)CCCn1nc(C)c2sc3ccccc3c2c1=O | inactive: 4.43%
Cc1ccccc1OCC(=O)Nc1ccc2nc(SCC(=O)N(C)c3ccccc3)sc2c1 | inactive: -1.06%
CC(C)(C)OC(=O)N1CCC(c2c(C(=O)N3CCN(c4ccc(Cl)cc4)CC3)cnn2-c2ccc(F)cc2F)CC1 | inactive: -2.75%
COc1ccc(Cl)cc1NC(=O)c1cc2ccc3ccc(C)[nH]c3c2n1 | inactive: -5.32%

SMILES | activity change, negative = inhibition
Cn1cc(S(=O)(=O)c2ccc(Cl)cc2)c(=O)c2cc(F)c(N3CCCC3)cc21 | inactive: 0.0361%
O=C(c1cc(-c2ccc(Cl)cc2)on1)N(Cc1cccc(F)c1)Cc1ccco1 | inactive: -1.88%
Cn1c(=O)c2nc(SCC(=O)Nc3cc(Cl)cc(Cl)c3)n(C)c2n(C)c1=O | inactive: -2.19%
Cc1nc2sccn2c(=O)c1S(=O)(=O)NCc1ccc(F)cc1 | inactive: 1.04%
CCc1ccc(NC(=O)CSc2c(C)cnc3c2c(=O)n(C)c(=O)n3C)cc1 | inactive: 3.96%
Cc1ccc(Cn2c(CNS(=O)(=O)c3ccc(C(C)(C)C)cc3)nc3cccnc32)cc1 | inactive: -0.0889%
COc1ccc(-c2cc(C(=O)Nc3ccc4c(c3)OCO4)no2)cc1OC | inactive: -4.04%
COc1cc(NC(=O)c2cc(-c3cccs3)on2)c(OC)cc1Cl | inactive: 1.54%
COc1ccc(CNc2nc(-c3ccco3)nn2C(=O)c2ccccc2Cl)cc1 | inactive: -3.71%
COc1ccc(NC(=O)C(=O)NCCc2ccc(OC)c(OC)c2)c(OC)c1 | inactive: 1.01%
Cc1c(NC(=O)c2cc(-c3ccc(O)cc3)on2)c(=O)n(-c2ccccc2)n1C | inactive: 3.8%
COc1ccccc1CNc1nc2ccccc2c2nc(-c3cccnc3)nn12 | inactive: -1.76%
O=C(COc1ccccc1Cl)OCc1cc(=O)n2nc(C3CC3)sc2n1 | inactive: -6.99%
COCCCNC(=O)c1cnn(-c2ccccc2Cl)c1C1CCN(C(=O)OC(C)(C)C)CC1 | inactive: -1.21%
COc1ccc(CNC(=O)C2CCN(C(=O)c3ccc(-n4ccc5ccccc54)s3)CC2)cc1 | inactive: 4.23%
COc1ccc(CCNC(=O)c2cccc(-n3c(C)nc4cccnc43)c2)cc1OC | inactive: -9.11%
COc1ccc(-c2cc3nc(-c4ccc(Br)cc4)cc(C(F)(F)F)n3n2)cc1 | inactive: 0.625%
COC(=O)c1ccc(NC(=O)CSc2cn(CC(=O)N3CCCCCC3)c3ccccc23)cc1 | inactive: -23.4%
Cc1nn(-c2nc(-c3ccc(F)cc3)cc(C(F)(F)F)n2)c(C)c1Br | inactive: -1.44%
COc1cccc(C(=O)Nc2ccccc2C(=O)OCc2cc(=O)n3c(C)csc3n2)c1 | inactive: 0%
COc1ccc(NC(=O)Cn2c(C)cc3ccccc3c2=O)c(OC)c1 | inactive: 1.56%
COC(=O)c1cc(C)nc2c1c(=O)nc(SCc1cccc(C)c1)n2C1CC1 | inactive: 3.36%
CCOC(=O)c1ccccc1NC(=O)Nc1cc2c(cc1N1CCCCC1)n(C)c(=O)n2C | inactive: -7.88%
Cc1nn(-c2ccc(F)cc2)c(-n2cccc2)c1C(=O)NCCCN1CCN(c2ccccc2F)CC1 | inactive: -14%
